Assay results: the supplement of paper PMC12217912
This is one part of the list. The full chains were built here from the parent and the listed change. Inactive controls read about 0.05.

B1: TEV protease; numbered along this chain (parent)
chain: MGESLFKGPRDYNPISSSICHLTNESDGHTTSLYGIGFGPFIITNKHLFRRNNGTLVVQSLHGVFKVKDTTTLQQHLVDGRDMIIIRMPKDFPPFPQKLKFREPQREERICLVTTNFQTKSMSSMVSDTSCTFPSGDGIFWKHWIQTKDGQCGSPLVSTRDGFIVGIHSASNFTNTNNYFTSVPKNFMELLTNQEAQQWVSGWRLNADSVLWGGHKVFMVKPEEPFQPVKEATQL

Variants of: B1
Test: raw area under fraction-flipped curve 0-4 h after induction (AUC4h, not background-subtracted), DNA-recorder readout of cleavage of the substrate (dimensionless); higher = more cleavage of the substrate by the protease variant
Conditions: temperature: 34 °C; time window: 0-4 h after rhamnose induction
Method: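 In vivo DNA recorder in E. coli TOP10(DE3) ΔrhaA at 34 °C. Each TEVp single-site mutant (parent TEVp 0) is paired with a single-site variant of the 7-mer TEVs (canonical ENLYFQ|S). The substrate sits between flexible linkers in a Bxb1-sfGFP-TEVs-SsrA fusion, so cleavage stabilises Bxb1 and speeds flipping of a recombination array, read by NGS. The value is the raw area under the fraction-flipped curve over 0-4 h after rhamnose induction (AUC4h), with ≥20 reads per time point. It is not background-subtracted; inactive controls average about 0.047.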
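Further: Bxb1 expression induced with 0.2% (w/v) L-rhamnose at OD600 near 0.5, cultures sampled hourly, flipped fraction per protease–substrate barcode pair counted by paired-end Illumina sequencing.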

Variant	area with substrate ENLYFQA	area with substrate ENLYFQC	area with substrate ENLYFQE	area with substrate ENLYFQG	area with substrate ENLYFQI	area with substrate ENLYFQK	area with substrate ENLYFQL	area with substrate ENLYFQM	area with substrate ENLYFQN	area with substrate ENLYFQR	area with substrate ENLYFQS	area with substrate ENLYFQT	area with substrate ENLYFQV	area with substrate ENLYFQW	area with substrate ENLYFQD	area with substrate ENLYFQH	area with substrate ENLYFQQ	area with substrate ENLYFQF	area with substrate ENLYFQP	area with substrate ENLYFQY
T129P	0.0792	0.109	0.0471	0.0958	0.0504	0.0785	0.0468	0.0903	0.0659	0.0605	0.0916	0.071	0.0627	0.0509						
F117M	0.108			0.0961	0.079			0.099		0.0664	0.104		0.0423							
T132S	0.0851				0.059	0.0741	0.0504			0.0613	0.0951				0.0737	0.0807	0.0596			
T132G	0.0902	0.16		0.0871	0.0582	0.0597	0.0656	0.0667	0.0803	0.0604	0.0906	0.0647	0.0724	0.0621	0.0696		0.0735	0.0567	0.0575	0.0517
D128H	0.101	0.158		0.124	0.0621		0.0578		0.0977	0.0778	0.122	0.0787		0.0608	0.0758	0.0898	0.0652	0.0641		
K100N	0.106	0.12		0.199	0.0498	0.0873	0.0556	0.105	0.0841	0.0516	0.102		0.059		0.0768	0.0869		0.0636		
T115C	0.1	0.113		0.0894			0.0535	0.0864		0.0694	0.104	0.0698	0.0655	0.0777	0.0756	0.0791	0.0594		0.0641	0.0815
N116A	0.129	0.15			0.0582	0.0586	0.0624	0.0697	0.0727	0.0737	0.1	0.058			0.0665	0.0712		0.0827	0.0548	0.0725
L99S	0.0799	0.0945		0.114		0.0769	0.0552	0.066		0.0631	0.0849	0.0562	0.0651	0.0693	0.0577	0.0757	0.0454		0.0845	
E108Y	0.0639	0.106		0.0485	0.0616		0.0553	0.0562	0.0482	0.0619	0.0616		0.0496	0.0468	0.0646	0.0625	0.0559			
E108N	0.0705	0.0758	0.0517	0.0714			0.0545	0.0488	0.062		0.0744	0.0785		0.0476			0.0641			0.0506
E108P	0.0609	0.0443				0.0481		0.0535			0.0614			0.0258	0.049	0.0503		0.0437	0.0519	
R106I	0.113				0.0619		0.057			0.0508	0.101	0.0556		0.0698						
R109C	0.102	0.121		0.0677			0.0747	0.0725	0.0763	0.053	0.0955	0.0785	0.0641		0.0859	0.0843				
